# The list shows a part of the results.
# Legend:
# Assay in all cases: glycan array binding signal (z-score within array); higher = stronger binding
# Conditions in all cases: glycan notation: IUPAC condensed, linker removed
# [1] = target: Neu5Ac(a2-3)Gal(b1-4)GlcNAc(b1-3)GalNAc
# In short: (§1)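 Arrays were curated from the Consortium for Functional Glycomics database, 3228 in total, and kept only where the protein sequence was available. Binding is expressed as a within-array Z-score. This score was averaged across arrays of the same protein sequence at different concentrations or buffers and across linkers, and negative values can be read as non-binding.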
# [2] = target: Neu5Ac(a2-3)Gal(b1-4)GlcNAc(b1-6)[Gal(b1-3)]GalNAc
# In short: as §1
# [3] = target: Neu5Ac(a2-3)Gal(b1-4)GlcNAc(b1-6)[Neu5Ac(a2-3)Gal(b1-3)]GalNAc
# In short: as §1
# [4] = target: Neu5Ac(a2-3)Gal(b1-4)GlcNAc6S
# In short: as §1
# [5] = target: Neu5Ac(a2-3)Gal(b1-4)[Fuc(a1-3)]GlcNAc
# In short: as §1
# [6] = target: Neu5Ac(a2-3)Gal(b1-4)[Fuc(a1-3)]GlcNAc(b1-3)Gal
# In short: as §1
# [7] = target: Neu5Ac(a2-3)Gal(b1-4)[Fuc(a1-3)]GlcNAc(b1-3)Gal(b1-4)GlcNAc
# In short: as §1
# [8] = target: Neu5Ac(a2-3)Gal(b1-4)[Fuc(a1-3)]GlcNAc(b1-3)Gal(b1-4)[Fuc(a1-3)]GlcNAc(b1-3)Gal(b1-4)[Fuc(a1-3)]GlcNAc
# In short: as §1
# [9] = target: Neu5Ac(a2-3)Gal(b1-4)[Fuc(a1-3)]GlcNAc(b1-3)GalNAc
# In short: as §1
# [10] = target: Neu5Ac(a2-3)Gal(b1-4)[Fuc(a1-3)]GlcNAc(b1-6)[Gal(b1-3)]GalNAc
# In short: as §1
# [11] = target: Neu5Ac(a2-3)Gal(b1-4)[Fuc(a1-3)]GlcNAc6S
# In short: as §1
# [12] = target: Neu5Ac(a2-3)Gal6S(b1-4)GlcNAc
# In short: as §1
# [13] = target: Neu5Ac(a2-3)Gal6S(b1-4)[Fuc(a1-3)]GlcNAc
# In short: as §1
# [14] = target: Neu5Ac(a2-3)GalNAc
# In short: as §1
# [15] = target: Neu5Ac(a2-3)GalNAc(b1-4)GlcNAc
# In short: as §1
# [16] = target: Neu5Ac(a2-3)[GalNAc(b1-4)]Gal(b1-4)Glc
# In short: as §1
# [17] = target: Neu5Ac(a2-3)[GalNAc(b1-4)]Gal(b1-4)GlcNAc
# In short: as §1
# [18] = target: Neu5Ac(a2-3)[GalNAc(b1-4)]Gal(b1-4)GlcNAc(b1-3)GalNAc
# In short: as §1
# [19] = target: Neu5Ac(a2-3)[Neu5Ac(a2-6)]GalNAc
# In short: as §1
# [20] = target: Neu5Ac(a2-6)Gal
# In short: as §1
# [21] = target: Neu5Ac(a2-6)Gal(b1-3)GlcNAc(b1-3)[Gal(b1-4)GlcNAc(b1-6)]Gal(b1-4)Glc
# In short: as §1
# [22] = target: Neu5Ac(a2-6)Gal(b1-4)Glc
# In short: as §1
# [23] = target: Neu5Ac(a2-6)Gal(b1-4)GlcNAc
# In short: as §1
# [24] = target: Neu5Ac(a2-6)Gal(b1-4)GlcNAc(b1-2)Man(a1-3)Man(b1-4)GlcNAc(b1-4)GlcNAc
# In short: as §1
# [25] = target: Neu5Ac(a2-6)Gal(b1-4)GlcNAc(b1-2)Man(a1-3)[Gal(b1-4)GlcNAc(b1-2)Man(a1-6)]Man(b1-4)GlcNAc(b1-4)GlcNAc
# In short: as §1
# [26] = target: Neu5Ac(a2-6)Gal(b1-4)GlcNAc(b1-2)Man(a1-3)[GlcNAc(b1-2)Man(a1-6)]Man(b1-4)GlcNAc(b1-4)GlcNAc
# In short: as §1
# [27] = target: Neu5Ac(a2-6)Gal(b1-4)GlcNAc(b1-2)Man(a1-3)[GlcNAc(b1-2)Man(b1-4)GlcNAc(b1-2)Man(a1-6)]Man(b1-4)GlcNAc(b1-4)GlcNAc
# In short: as §1
# [28] = target: Neu5Ac(a2-6)Gal(b1-4)GlcNAc(b1-2)Man(a1-3)[Man(a1-6)]Man(b1-4)GlcNAc(b1-4)GlcNAc
# In short: as §1
# [29] = target: Neu5Ac(a2-6)Gal(b1-4)GlcNAc(b1-2)Man(a1-3)[Neu5Ac(a2-6)Gal(b1-4)GlcNAc(b1-2)Man(a1-6)]Man(b1-4)GlcNAc(b1-4)GlcNAc
# In short: as §1
# [30] = target: Neu5Ac(a2-6)Gal(b1-4)GlcNAc(b1-2)Man(a1-6)Man(b1-4)GlcNAc(b1-4)GlcNAc
# In short: as §1
# [31] = target: Neu5Ac(a2-6)Gal(b1-4)GlcNAc(b1-2)Man(a1-6)[Gal(b1-4)GlcNAc(b1-2)Man(a1-3)]Man(b1-4)GlcNAc(b1-4)GlcNAc
# In short: as §1
# [32] = target: Neu5Ac(a2-6)Gal(b1-4)GlcNAc(b1-2)Man(a1-6)[GlcNAc(b1-2)Man(a1-3)]Man(b1-4)GlcNAc(b1-4)GlcNAc
# In short: as §1
binder,measurement,setting,value
"GNAT (Pseudomonas aeruginosa), Q9HV14 (protein) MQLSHRPAETGDLETVAGFPQDRDELFYCYPKAIWPFSVAQLAAAIAERRGSTVAVHDGQVLGFANFYQWQHGDFCALGNMMVAPAARGLGVARYLIGVMENLAREQYKARLMKISCFNANAAGLLLYTQLGYQPRAIAERHDPDGRRVALIQMDKPLEP",glycan array binding signal (z-score),[1],-0.374
same,glycan array binding signal (z-score),[2],-0.355
same,glycan array binding signal (z-score),[3],-0.097
same,glycan array binding signal (z-score),[4],-0.348
same,glycan array binding signal (z-score),[5],-0.269
same,glycan array binding signal (z-score),[6],-0.379
same,glycan array binding signal (z-score),[7],1.69
same,glycan array binding signal (z-score),[8],-0.195
same,glycan array binding signal (z-score),[9],2.77
same,glycan array binding signal (z-score),[10],5.03
same,glycan array binding signal (z-score),[11],-0.383
same,glycan array binding signal (z-score),[12],-0.468
same,glycan array binding signal (z-score),[13],-0.485
same,glycan array binding signal (z-score),[14],-0.47
same,glycan array binding signal (z-score),[15],-0.348
same,glycan array binding signal (z-score),[16],-0.393
same,glycan array binding signal (z-score),[17],-0.409
same,glycan array binding signal (z-score),[18],0.442
same,glycan array binding signal (z-score),[19],-0.405
same,glycan array binding signal (z-score),[20],-0.463
same,glycan array binding signal (z-score),[21],1.03
same,glycan array binding signal (z-score),[22],-0.431
same,glycan array binding signal (z-score),[23],-0.351
same,glycan array binding signal (z-score),[24],-0.341
same,glycan array binding signal (z-score),[25],1.05
same,glycan array binding signal (z-score),[26],-0.458
same,glycan array binding signal (z-score),[27],-0.293
same,glycan array binding signal (z-score),[28],-0.411
same,glycan array binding signal (z-score),[29],-0.174
same,glycan array binding signal (z-score),[30],-0.389
same,glycan array binding signal (z-score),[31],0.956
same,glycan array binding signal (z-score),[32],-0.283
